# Data from PubChem BioAssay AID1346378 (National Center for Advancing Translational Sciences (NCATS), 2018).
# The campaign covered roughly 420,000 compounds. About 540 (0.13%) were called active. The shares of active, inactive and inconclusive entries below differ from those in the screen. Rule as the data show it: active = activity change below about -50%; inconclusive = mostly about -30% to -49%; inactive = weaker than that.
# Molecular target: Phosphatidylinositol 4-kinase type 2-alpha (Homo sapiens) (UniProt Q9BTU6)
# Assay: qHTS for small molecular inhibitors of PI4K2A;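 as to activity change, negative = inhibition: -100% = wells without enzyme as full effect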
# Conditions: purified PI4K2A, ADP-Glo luminescence, 1 h; at 76.9 µM, hits give low values
# Outline: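 Compounds are screened against recombinant PI4K2A using PI as substrate and ATP, the latter dispensed at 300 microM. Reactions run one hour at ambient temperature before ADP-Glo detection; full inhibition defined by wells lacking enzyme.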
# Chain of UniProt Q9BTU6 (Q9BTU6 whole entry, looked up): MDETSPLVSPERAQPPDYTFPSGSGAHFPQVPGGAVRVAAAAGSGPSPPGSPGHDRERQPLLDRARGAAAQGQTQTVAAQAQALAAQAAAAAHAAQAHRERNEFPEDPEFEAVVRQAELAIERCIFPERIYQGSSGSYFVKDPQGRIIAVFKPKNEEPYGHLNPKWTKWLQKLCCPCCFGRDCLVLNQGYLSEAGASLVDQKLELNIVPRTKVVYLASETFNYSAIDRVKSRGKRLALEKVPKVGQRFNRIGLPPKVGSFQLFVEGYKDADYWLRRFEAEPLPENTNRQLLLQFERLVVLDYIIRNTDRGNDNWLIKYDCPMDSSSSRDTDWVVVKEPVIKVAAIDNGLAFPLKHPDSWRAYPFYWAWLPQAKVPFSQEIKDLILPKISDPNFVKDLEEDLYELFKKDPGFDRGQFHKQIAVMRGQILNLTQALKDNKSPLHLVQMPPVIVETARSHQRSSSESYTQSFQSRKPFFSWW
row,Structure (SMILES),"activity change, negative = inhibition"
1,Nc1c(C(=O)O)cnn1-c1ccccc1,active: -60.3%
2,Cc1ccc(N=C2NC(=O)/C(=C/C=C/c3ccco3)S2)cc1C,inconclusive: -40.2%
3,c1nc(N2CCN(Cc3ccc4c(c3)OCO4)CC2)c2[nH]cnc2n1,inactive: -2.7%
4,Nc1c(N2CCCC2)cc(Cl)c2nonc12,active: -66.1%
5,COc1ccc(/C(N)=N/OC(=O)Cc2ccc(C)cc2)cc1,inconclusive: -47.3%
6,CCOC(=O)Cc1csc(NC(=O)c2cccs2)n1,active: -83.8%
7,Nc1cccc2c(O)cc(S(=O)(=O)O)cc12,inconclusive: -31.5%
8,COc1ccc(/C=N/Nc2nncn2N)cc1Br,active: -53.6%
9,Cc1nc(NC(=O)CN(C)S(=O)(=O)c2ccc(Br)cc2)sc1C,inactive: -2.37%
10,Cc1nonc1C(=O)N/N=C/c1ccc(O)c(O)c1,active: -62.4%
11,CCN(CC(=O)Nc1c(F)cccc1F)C(=O)/C=C/c1ccc2ccccc2n1,inconclusive: -42.9%
12,FCCCOc1ccc(/C=N/OCc2ccc(Cl)cc2)cc1,inconclusive: -30.9%
13,O=C(Nc1cccc(-c2nc3cccnc3s2)c1)c1ccco1,inactive: 0.685%
14,CC(=O)OCCCNc1cc(SCc2ccco2)c2nonc2c1[N+](=O)[O-],inconclusive: -39.6%
15,CCOc1ccc(NC(=O)c2c(NCc3ccc(C)o3)sc3c2CCCCC3)cc1,inconclusive: -34.5%
16,O=C1C=C(O)c2c(O)cc(O)c(O)c2C1=O,inconclusive: -40.9%
17,COc1ccccc1N=c1oc2cc(O)ccc2cc1C(N)=O,active: -51.6%
18,COc1ccc(/C=N/NC(=O)c2nn(-c3ccc(Cl)cc3)c(=O)c3c(N)scc23)cc1,inconclusive: -41.9%
19,Fc1ccc(-c2nc3n(n2)Cc2ccccc2-3)cc1,inconclusive: -36.9%
20,O=C(Nc1ccc(Cl)c(C(F)(F)F)c1)C1Cc2c(-c3ccccc3)ccnc2O1 (centres undefined),inactive: -3.5%

row,Structure (SMILES),"activity change, negative = inhibition"
1,O=C1CCCC(O)=C1N=Nc1ccc(C(=O)O)cc1,inconclusive: -32.4%
2,O=S(=O)(c1cccc(Cl)c1)n1c(/C=C/c2ccccc2Cl)nc2ccccc21,inconclusive: -33.4%
3,O=C(O)c1c2c(nc3ccccc13)/C(=C/c1cccc([N+](=O)[O-])c1)CCC2,inactive: -1.88%
4,COc1ccc2[nH]c(=O)c(CNc3ccccc3C)cc2c1,inactive: -7.97%
5,COc1cccc(-c2nc(-c3ccccn3)no2)c1,inconclusive: -39%
6,CCOc1ccccc1NC(=O)CSc1ncc2c(n1)-c1ccccc1N(CC)S2(=O)=O,inactive: -1.24%
7,CC(C)c1nc2ccc(C(=O)NCc3ccccc3Br)cc2o1,inactive: 1.45%
8,Cc1ccsc1C=C1C(=O)c2ccccc2C1=O,inconclusive: -30.4%
9,O=C1COc2ccc(C(=O)COC(=O)/C=C/c3ccc(Br)o3)cc2N1,inconclusive: -43.8%
10,Cn1c(=O)c2[nH]c(Br)nc2n(C)c1=O,inactive: -0.508%
11,Nc1ccc(N)c([N+](=O)[O-])c1,inconclusive
12,CCOC(=O)N1CCN(C2=C(NS(=O)(=O)c3ccc(C)cc3)C(=O)c3ccccc3C2=O)CC1,inconclusive: -44.2%
13,COc1cccc(OC)c1C(=O)Nn1c(C2CCC2)nc2ccccc2c1=O,inactive: -1.49%
14,Nc1ncnc2c1cnn2-c1ccccc1,inconclusive: -32.8%
15,COc1cc(NC(=O)NC(C)c2c(-n3cccc3)sc3c2CCN(C)C3)cc(OC)c1 (centres undefined),inactive: 3.28%
16,O=C(O)c1cc(S(=O)(=O)Nc2ccc3oc(=O)sc3c2)ccc1O,active: -67.6%
17,O=C(NCc1ccco1)c1c2c(nc3ccccc13)CCC2,inconclusive: -30.7%
18,CC1CCCN(S(=O)(=O)c2ccc(C(=O)Nc3nnc(-c4ccco4)o3)cc2)C1 (centres undefined),inactive: -5.01%
19,O=S1(=O)c2ccc(N3CC[C@H](O)C3)cc2OCCCN1C1CC1,inactive: -1.86%
20,C=CCn1c(SCC(=O)NC2CCCC2)nc2scc(-c3ccco3)c2c1=O,inconclusive: -41.9%

row,Structure (SMILES),"activity change, negative = inhibition"
1,Cc1ccc(C(C2C(=O)CC(C)(C)CC2=O)C2C(=O)CC(C)(C)CC2=O)s1,inconclusive: -34.3%
2,O=C1CC(=O)N(Cc2ccco2)C(=O)N1,inconclusive: -40.7%
3,Cc1nnc(Sc2cc(NCCO)c([N+](=O)[O-])c3nonc23)s1,inactive: -19.4%
4,C=CC[C@@H](CC(=O)NCCO)C(=O)NC[C@H](OC(=O)[C@@H](CC=C)Cc1ccc(F)cc1)c1ccccc1,active: -51.5%
5,CCc1ccc(S(=O)(=O)/N=C2/C=C(Sc3ncn[nH]3)C(=O)c3ccccc32)cc1,active: -56.3%
6,CC(=O)N1CCC(C(=O)Nc2ccccc2)(N(Cc2ccccc2)C(=O)c2cccnc2)CC1,inactive: -7.76%
7,Cn1nccc1C(=O)Nc1ccn(C23CC4CC(CC(C4)C2)C3)n1,inactive: 2.86%
8,CN=c1scc(-c2cccs2)n1/N=C/c1ccc(O)c(O)c1O,inconclusive: -32%
9,COc1ccc(Cn2c(C)c(C)c(C#N)c2NC(=O)Nc2cccc(Cl)c2)cc1,inconclusive: -33.3%
10,Cc1cccc(C)c1OCC(O)CN1CCc2ccccc2C1 (centres undefined),inactive: -0.152%
11,COCCN(C(=O)COC(=O)CCc1nc2ccccc2s1)c1c(N)n(Cc2ccccc2)c(=O)[nH]c1=O,inactive: -1.35%
12,O=C1Nc2ccc([N+](=O)[O-])cc2C1=Nc1cccc(CO)c1,inconclusive: -32.8%
13,COc1ccc(C(=O)Nc2ccc3[nH]ccc3c2)cc1,inconclusive: -42.5%
14,Cc1ccc2oc(=O)c3cc(C(=O)Nc4cccc(C#N)c4)sc3c2c1,inconclusive: -41.7%
15,CC1=NN(c2ccccc2)C(=O)/C1=C/N(C)C,inconclusive: -48.7%
16,Cc1noc(/C=C/c2ccco2)c1S(=O)(=O)N1CCC(C(=O)N2CCc3ccccc3C2)CC1,inconclusive: -49.4%
17,CN(C)CCNc1ccc2ncn3c4ccc(O)cc4c(=O)c1c23,inconclusive: -39%
18,CC1=C(SCc2ccccc2)C(=O)c2ccccc2C1=O,inconclusive: -47.3%
19,CC1C(=O)N(Cc2cn(Cc3ccco3)nn2)CCS(=O)(=O)N1Cc1ccc(-c2cccnc2)cc1 (centres undefined),inconclusive: -36.8%
